# Experimental data reported in the supplement of paper PMC11417369.
# ± gives the standard deviation of the averaged measurements. The list shows a part of the results.
# Test system: PfAP2-EXP AP2 domain (GST-tagged)
# Test: gcPBM binding intensity (ln(normalized median fluorescence intensity)); higher = stronger DNA binding
# In short: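 Alexa488 anti-GST antibody, scanned at 488 nm, detected GST-tagged P. falciparum DNA-binding domains that had been expressed in E. coli and incubated for 1 h on an Agilent 4 × 180k array. The array carried primer-extended double-stranded 36-bp intergenic genomic probes and negative controls. Binding intensity is the highest Masliner-normalised natural-log median intensity across replicate spots of either orientation of each probe.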
row,Sequence,gcPBM binding intensity (ln)
1,AGACAAAATGTTTGAAGTACTTTTTATCAAATTAAA [XGTACX_site8885],8.4 ± 0.4
2,TGATTTTTTCATATTCTACACACGTGAACAAATGTG [CACACA_site8987],8.4 ± 0.44
3,TTGTTAATAAATAAATAAATAAATATATTTATATAT [GTGCAC_negctrl_site271],7.96 ± 0.42
4,TTAATTATTATATAAGTGCAATAATAAAAAGTTGTA [GTGCAC_site9552],8.65 ± 0.17
5,TTTTTTACAATTAACACACTCAAAAATAATATTAAA [CACACA_site5198],8.35 ± 0.46
6,AATTTTTTAAATGTGTGTACATATTATTTAAATAAT [XGTACX_site5967],8.5 ± 0.099
7,TATATTATATATATATGTACATATGGCAAAACATTA [XGTACX_site7958],8.89 ± 0.41
8,AAAAAAAAAAAAAAATGTACCCATAAAATAAGCATT [XGTACX_site8576],8.46 ± 0.38
9,AATCACAACGAACACACACACAAAAAAAAAAAAAAA [CACACA_site6790],8.14 ± 0.53
10,ATATATATATCTAATTGTACATATTTTATAAATAAG [XGTACX_site4840],9.375 ± 0.064
11,AAATACTGATTTGGTTGTACATGTGCACTATATAAC [XGTACX_site3795],9.19 ± 0.2
12,AAAAATTAAATGTACACACACCTTAAACAATGTCAT [CACACA_site6958],8.39 ± 0.38
13,TATAATCTAACATAATGTACATGTATATGCACTTTA [XGTACX_site369],8.52 ± 0.042
14,ATAAATATATTTATATGTACATATAATTTTACATAT [XGTACX_site5440],8.89 ± 0.37
15,TCCACATTAATGTAATGTACAAAATTAGAAAATAAA [XGTACX_site6287],8.62 ± 0.39
16,AATATAAATACTCCTACACACATATAAATATAAATA [CACACA_site7419],8.45 ± 0.39
17,TTTTGATTAAGTGAATTTTTTTATTTATATAAATAT [TGCATGCA_negctrl_site479],8.26 ± 0.46
18,TACGAATTAAAAAAGAGTACAAATAAAATATCTACA [XGTACX_site7412],8.41 ± 0.35
19,CATACATACATATATACACACATATATAATAATATA [CACACA_site2678],8.51 ± 0.28
20,TTTTAAACACCAATCAAAAAAATATAAATATAAATA [TGCATGCA_negctrl_site552],8.39 ± 0.45
21,AATTAGCTCAAAGGTTGTACAAATATATTTTAATGG [XGTACX_site2352],8.7 ± 0.45
22,TCCGTATATTTATACGCATGCATTATGAACATTGTT [TGCATGCA_site613],9.25 ± 0.099

row,Sequence,gcPBM binding intensity (ln)
1,AAATTTTTTTTTGTCATATGATGTTTGAACCCAAAT [CACACA_negctrl_site1659],8.48 ± 0.66
2,AAAAAAAATAATTTGCGTACATAAAAATTTATAGGA [XGTACX_site3016],8.64 ± 0.25
3,GGATTACAAATAGGTTGTACGTTTTTTTTTTTTTCT [XGTACX_site3605],8.51 ± 0.46
4,ATGTAGACTGAAACCACACACACATATATATATATA [CACACA_site606],10.1 ± 0.26
5,TTACATTGTAAAAAGTGTACATATAATTTAATTAAT [XGTACX_site1834],8.61 ± 0.33
6,TCATATGTGAAACACACACACACACCCAAAAAAACA [CACACA_site3247],8.68 ± 0.52
7,TGTTTCTTATTTTTTTCACACACTAATCATTTCAAA [CACACA_site8695],8.82 ± 0.52
8,ATTATGTTATTATTTTGTACACATAAATAATACGTT [XGTACX_site816],8.61 ± 0.35
9,GAACAAAAATACTTATGTACACATTAGCAAGGAAAA [XGTACX_site5622],8.74 ± 0.41
10,ATCTGAAAAATTAATAGTACAATTAATAATTAAACC [XGTACX_site8523],8.72 ± 0.3
11,TATACGCATATATACACACACATATATATATATATA [CACACA_site3416],9.92 ± 0.44
12,AAACAAAAAAGAAGCACACATATATATATATATATG [CACACA_site2456],8.86 ± 0.25
13,AACAAACAAATAGTTTATTTTGATTTTTTTAAAAAT [CACACA_negctrl_site693],7.93 ± 0.47
14,TGTTAATTTCATTTTCTACACACCTATCCTTTTTTT [CACACA_site8157],8.88 ± 0.47
15,ACAAATAAATATTCGCGTACTTATATAATATTACGA [XGTACX_site6428],8.61 ± 0.3
16,AAAAAAAATATCCGACGTACTATTTTCGTAGAAATA [XGTACX_site6292],8.27 ± 0.44
17,AAAAAAAAAAAAAAAAAAAAAAAAATCACACATTGG [TGCATGCA_negctrl_site412],9.1 ± 0.11
18,TTTTGGATGTATTATACATGCATATTATTATAATAT [TGCATGCA_site997],8.72 ± 0.54
19,TGTACAACAATTTTTGCACACACCAAAACATAAAAT [CACACA_site1598],8.82 ± 0.36
20,AAAAAAAAAAAATAAAGTACTAAATAATACATTATA [XGTACX_site6203],8.13 ± 0.33
21,AGAAAAGAAATTAAATGTACACAACTATAACCAAAT [XGTACX_site8084],8.98 ± 0.35
22,TTTTATAAAATATAATATAATAATATATGTATAATA [CACACA_negctrl_site1788],8.12 ± 0.42

row,Sequence,gcPBM binding intensity (ln)
1,ATATATCTACAAATATGTACACACACACATATATAT [XGTACX_site1075],8.77 ± 0.38
2,AATAAAAAATATAACACAAATATGTATATATATATA [TGCATGCA_negctrl_site245],9.81 ± 0.34
3,ACATATAAAATGTATACACACAAATATTACATATAT [CACACA_site1472],8.42 ± 0.31
4,CAAAAAAAAAAAAAAAATAAATAAAGGAAATAAAAA [CACACA_negctrl_site20],8.4 ± 0.64
5,AACCAATTATATTTACGTACGTACGGTTTTTTATAT [XGTACX_site1291],9.03 ± 0.47
6,TTCTCAAAGAAGAAAAAGTTTTTTTAATTTTTCTTT [XGTACX_negctrl_site543],8.05 ± 0.45
7,ATATATTAATATACTCGTACATATTCTTATTGTGTA [XGTACX_site3728],8.54 ± 0.39
8,AATATATTTTTTTTTTGTACATATTGTAAAATAATA [XGTACX_site6805],8.42 ± 0.44
9,GTGTAGTTAAAAAAAAGTACAGATTTTTTTTTTTTT [XGTACX_site849],8.43 ± 0.092
10,ATAAGAACGTCTATGTGTACGCAGCAAAACTGAGTT [XGTACX_site6385],8.44 ± 0.24
11,ATAGAATATTGATATTGTACGTTATCTTAAAACAAT [XGTACX_site1702],8.54 ± 0.33
12,AAAAAAAAAAAAACAAGTACAAAGGATAGAAAAAAA [XGTACX_site4133],8.77 ± 0.38
13,CACATTTAGAAATAGTTTTATTTTGTATATTCTATT [CACACA_negctrl_site1382],8.24 ± 0.5
14,GTATGTGTATGTGTATGTACATATGTATGTATAAAA [XGTACX_site8191],9.07 ± 0.099
15,TTTTGTATATATCACATTAAAAGAAAAAAATATATG [GTGCAC_negctrl_site120],8.33 ± 0.33
16,TATACATTTATGTACACACACATATCTGTATATTTA [CACACA_site5617],8.35 ± 0.31
17,TATATATATTTCCAGTGTACTTATTTTTTAATCAAT [XGTACX_site8220],8.74 ± 0.27
18,TCCTCAAAAAAATAAAATAATTTATACTTTTTTAAA [GTGCAC_negctrl_site724],7.78 ± 0.5
19,TTTTTTAAATATTAAAAATGGGATCTTATAACATAT [GTGCAC_negctrl_site666],8.21 ± 0.32
20,TGTATAAACCCACGTACACACACTAAGTATATCCAA [CACACA_site1605],8.91 ± 0.41
21,TAAAATATATTGCCAGTGCATAATATATGTAATTAT,8.51 ± 0.11
22,TTATTTTTAACGTACGCACACATATAAATATATTTA [CACACA_site1976],8.82 ± 0.29

row,Sequence,gcPBM binding intensity (ln)
1,TAAACAAATAAATAAACACACAATATAGGTATATAT [CACACA_site7739],8.55 ± 0.47
2,AACTAATAAAAAAAAAAAACATTAAACAGGACAAAT [XGTACX_negctrl_site287],8.7 ± 0.59
3,TTGTTTTTAGTTTATACACACCATATTAAAATAATG [CACACA_site5675],8.66 ± 0.44
4,AATAAAATATACTATTGTACATATGGAACTACTTGA [XGTACX_site8928],8.52 ± 0.36
5,ATTTATTATATATAGTGTACGTTCTTAATTATAATT [XGTACX_site7480],8.71 ± 0.28
6,TTGTATTACATAAATGTTCTTTATTATTTGATAAAA [CACACA_negctrl_site903],8.36 ± 0.33
7,TATATAATATATTAATGTACTTAAAATATATTCTAT [XGTACX_site1235],8.12 ± 0.33
8,TTTTTAGGAAAGGCGGCACACATTTATATATTTATT [CACACA_site3672],8.29 ± 0.47
9,ATAAAATAAATATAACCACACACGAAAGAGAGAGAA [CACACA_site9075],9.07 ± 0.52
10,TTCCAACCAATACAAACATGCATTTGAAAAAATGTA [TGCATGCA_site119],8.55 ± 0.43
11,TTCGCCCTAAATAGAGTGCATTATATATATTAATAT,8.95 ± 0.2
12,CAAAATATATTGAATTGTACATAAAAATAAAAATTA [XGTACX_site4193],8.83 ± 0.71
13,TTTATTTTATCATTTGCACACGCACGCCCACATAAA [CACACA_site353],9 ± 0.23
14,AGCAGTCAGCAGGACAGTACACAGTAGCCAGTAACT [XGTACX_site1999],8.36 ± 0.47
15,ATTTTTTTGGAATTCACACACAAAAAAAAAAATAAA [CACACA_site2081],8.63 ± 0.49
16,AATTAGACATAATATACACACATATATTATATATAT [CACACA_site2691],8.615 ± 0.064
17,TTCAAAAGATATATCGTGCACATATATATGATGAAA,9.35 ± 0.62
18,ATTATTTTATTTATTGGTACGTAATTGTAGATTTCT [XGTACX_site3697],8.64 ± 0.4
19,ATACATTCTTATTACTGTACAGGGTTAATTATTTGT [XGTACX_site948],8.9 ± 0.32
20,TGGAGATAAAATAAAACACACACATATATATATATA [CACACA_site8683],10 ± 0.39
21,GCAAAAACAAACGTCACACATACAAAGGCCGTGTAA [CACACA_site6043],8.42 ± 0.49
22,TAGGTATATAAATAATGTACATATAAACTATATAGA [XGTACX_site2597],8.79 ± 0.5
